This note sets out measurements from PubChem BioAssay (NCI).

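Following 48 hours of exposure in 96-well plates, responses at five concentrations were used to interpolate endpoints linearly. Abbreviation: GI50, concentration required for 50% inhibition of growth. TGI: total growth inhibition.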

In this assay the test system is NCI-H322M lung. Description: NCI tumour cell line growth inhibition, 48 h.

Turning to `Cc1ccc(C(C)C)cc1Oc1cccc(-c2c(-c3ccc(C(F)(F)F)cc3)ncn2C2CCNCC2)n1`, the GI50 is 1520 nM and the TGI is 2.85 µM.
Turning to `COc1ccc(NC(=O)CSc2nnc(-c3ccc(-c4nc5ccc(Cl)cc5[nH]4)cc3)o2)cc1`, the GI50 is 3670 nM and the TGI stood at 20.6 µM.
